Screen size: about 45,000 compounds; about 65 (0.1%) were called active. Calls come from the whole dose curve; as a rule, active = well fitted activation curve with a large enough effect; inconclusive = small, poorly fitted or top-dose-only effect; inactive = no such curve, though single readings can be large or run the other way. Some of the results follow.
Molecular target: Galactocerebrosidase (Homo sapiens) (UniProt P54803)
Experiment: A Novel Cell-Based Assay to Identify Small Molecules for B -Galactocerebrosidase; note: 0% is about no effect; nearly all actives have a fitted effect of over 65% in size
Details: 145M-Twi-hGALC-G270D cells, HMU-beta-Gal fluorescence, 48 h; series mostly up to 57.5 µM; activation: at the top concentration
Procedure, shortened: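 qHTS, 1536-well; 145M-Twi-hGALC-G270D cells (WT line also made) in DMEM/F12 + 10% FBS; compound incubation on live cells; HMU-β-gal 0.1 mM final, pH 5.2, NaTC; carbonate stop; fluorescence increase = enhanced residual activity.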

Chain of UniProt P54803 (P54803 whole entry, looked up): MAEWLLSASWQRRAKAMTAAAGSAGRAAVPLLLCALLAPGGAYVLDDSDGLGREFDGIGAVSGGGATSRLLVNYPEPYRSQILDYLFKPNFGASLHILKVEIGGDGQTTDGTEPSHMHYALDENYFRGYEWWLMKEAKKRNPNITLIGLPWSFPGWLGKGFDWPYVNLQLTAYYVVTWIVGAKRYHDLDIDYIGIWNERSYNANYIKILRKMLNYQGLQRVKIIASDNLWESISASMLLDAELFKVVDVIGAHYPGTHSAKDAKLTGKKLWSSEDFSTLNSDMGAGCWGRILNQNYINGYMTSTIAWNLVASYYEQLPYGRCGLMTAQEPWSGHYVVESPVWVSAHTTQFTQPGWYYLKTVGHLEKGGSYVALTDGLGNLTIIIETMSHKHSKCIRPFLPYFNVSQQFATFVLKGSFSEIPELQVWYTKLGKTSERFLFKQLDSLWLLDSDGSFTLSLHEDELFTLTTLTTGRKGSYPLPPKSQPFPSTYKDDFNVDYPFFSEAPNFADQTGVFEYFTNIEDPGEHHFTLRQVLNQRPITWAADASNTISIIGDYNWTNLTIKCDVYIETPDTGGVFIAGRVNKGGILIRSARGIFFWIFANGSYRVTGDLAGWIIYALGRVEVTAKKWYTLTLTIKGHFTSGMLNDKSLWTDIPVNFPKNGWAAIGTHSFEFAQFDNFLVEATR

activation, inactive:
O=C(Nc1ccc(F)cc1F)c1cc2ccc3cccnc3c2[nH]1 -14.1%
COc1ccc(-c2nc(Cn3c(SCc4cccc(F)c4)nc4cccnc43)c(C)o2)cc1 -3.88%
Cn1cc(S(=O)(=O)N2CCCCCC2)cc1C(=O)Nc1ccccc1F -3.98%
COc1ccc2oc(-c3ccc(C)c(NC(=O)c4sc5ccccc5c4Cl)c3)nc2c1 -21.3%
COc1cccc(C(=O)NCC(c2ccc(N(C)C)cc2)N2CCc3ccccc32)c1OC (stereo not drawn) -4.24%
COc1cccc(-n2c(-c3ccco3)nc3c(cnn3-c3ccccc3C)c2=O)c1 -7.64%
CC(C)c1ccc(C(=O)Nc2ccc(-c3nc4ccccc4s3)c(Cl)c2)cc1 -10.8%
CCCCN(CCCC)S(=O)(=O)c1ccc(C(=O)Nc2sc3c(c2C(N)=O)CCN(CC)C3)cc1 -17.2%
CCc1nc2ccccc2n1CCCCOc1ccc(Cl)cc1 2.78%
COc1cc(NC(=O)Cn2nc(Cc3cccnc3)c3ccccc3c2=O)cc(OC)c1OC -11.2%
Cc1cccc(OCC(=O)Nc2c(C(=O)N3CCN(c4ccccc4)CC3)oc3ccccc23)c1 -17.1%
COc1ccc(N2CCN(c3oc(-c4ccccc4C)nc3S(=O)(=O)c3ccccc3)CC2)cc1 -15.6%
CC1=C(C(=O)Nc2cccc(Cl)c2)C2(CCCCCC2)OC1=O 0.249%
Cc1nc2c([nH]1)c(=O)n(C)c(=O)n2Cc1ccco1 -7.17%
COc1ccccc1NC(=O)Cn1c(=O)n(CCc2ccccc2)c(=O)c2sc3ccccc3c21 2.11%
COc1cc(NC(=O)Cn2nc(C(F)(F)F)c3c2CCCC3)cc(OC)c1OC -7.62%
O=C(Nc1ccc(-c2cn3cccnc3n2)cc1)c1ccccc1F -3.51%
Cc1ccc(OCc2ccc(-c3nc(C#N)c(N4CCN(c5cccc(Cl)c5)CC4)o3)o2)cc1 -11.6%
Cc1cccc(CSc2nc3ccncc3n2Cc2ccc(C(=O)O)cc2)c1 -3.68%
CCOc1ccccc1CNC(=O)CCCn1nc(C)c2sc3ccccc3c2c1=O -12.7%
CCN1CCN(c2cc(C)c3cc(NC(=O)c4cc(Br)ccc4Cl)ccc3n2)CC1 -22.7%
CCCC12CN3CC(C)(CN(C1)C3c1cn(CC)c3ccccc13)C2=O (stereo not drawn) -27.7%
CCC1CN(C(=O)N2CCC(C(=O)NCCCc3ccccc3)CC2)c2ccccc2O1 (stereo not drawn) -6.75%
CN(C)c1ccc(CNC(=O)Cn2c(=O)oc3cc(S(=O)(=O)NCc4ccccc4)ccc32)cc1 0.32%
COc1ccc(CNC(=O)c2ccc(CS(=O)(=O)c3ccc(OC)cc3)o2)cc1 -13.2%
Cc1nn(CCC(=O)N2CCN(c3ccccc3F)CC2)c(C)c1S(=O)(=O)N1CCCC1 -2.56%
COc1ccc(C(=O)Nc2cc3cc(Cl)ccc3oc2=O)cc1OC -0.354%
CCOC(=O)c1c(C)[nH]c(CCC(=O)Nc2ccccc2OCC)c1C -18.7%
COc1ccc2oc(=O)cc(CN3CCN(c4ccccc4OC)CC3)c2c1 -25.2%
COCCCNC(=O)CSc1nc(-c2ccc(OC)cc2)[nH]c1-c1ccc(OC)cc1 -9.4%
CC(=O)N1CCCc2cc(S(=O)(=O)N3CCC(C(=O)NCc4ccccc4Cl)CC3)ccc21 -16.7%
CCC(=O)N1c2ccccc2CC1C(=O)NCCN1CCN(c2cccc(Cl)c2)CC1 (stereo not drawn) -25.5%
O=C(NCc1ccccc1Cl)c1ccc2nc(Cc3ccccc3)oc2c1 -7.14%
Cc1ccc(-c2nc(C)c(CCNC(=O)C(=O)Nc3ccc(C)c(Cl)c3)s2)cc1 2.17%
CCOC(=O)c1cc(S(=O)(=O)NCc2ccc(F)cc2)[nH]n1 -17%
CC(=O)Nc1ccccc1OCc1cc(=O)n2c(C)csc2n1 -18.1%
CCC1(C)CC(=O)NC1=O (stereo not drawn) -14.9%
CC(=O)N1c2ccc(S(=O)(=O)NCc3ccc(Cl)cc3)cc2CC1C (stereo not drawn) 5.42%
COc1cccc(-c2nn(C)c3sc(C(=O)NCc4ccc(C)cc4)cc23)c1 -14.8%
CCN(CC)C(=O)c1sc2c(c1C)c(=O)n(-c1ccc(OC)cc1OC)c(=O)n2Cc1cc(C)ccc1C 7.69%
CCc1ccc(CNC(=O)Cn2nc(C)c3c(C)n(-c4ccc(C)cc4)nc3c2=O)cc1 -7.79%
CCC(CC)C(=O)Nc1cccc(-c2nc3ncccn3c2C)c1 -19.6%
CCN(CCCNC(=O)CSc1cc(=O)n(C)c2cc(Cl)ccc12)c1ccccc1 -33.9%
COc1ccc(CN(C)c2ccc(-c3nc(C)no3)cc2[N+](=O)[O-])cc1 -6.22%
Cc1ccc(NC(=O)CSc2ncc3c(n2)-c2ccccc2N(C)S3(=O)=O)c(Cl)c1 -6.71%
COc1ccc2nc(SCc3ncc(C)c(OC)c3C)[nH]c2c1 -13.8%
CN1CCN(CCNC(=O)c2cnn(-c3cccc(Cl)c3)c2C2CCN(C(=O)OC(C)(C)C)CC2)CC1 20.5%
Cc1cc(=O)n2nc(N3CCC(C(=O)NCc4ccccc4F)CC3)sc2n1 -13.9%
CC1N=C2c3ccccc3N=C(SCC(=O)NCc3ccc(Cl)cc3)N2C1=O (stereo not drawn) -11.2%
COCCCNC(=O)c1sc2nc(C)c(C(=O)Nc3ccc(Cl)cc3)c(-c3ccc(Br)cc3)c2c1N -8.27%
CCCNC(C)(C)COC(=O)c1ccccc1 6.07%
CCN(CC)c1nn2c(=O)c(C(=O)NCc3cccc(OC)c3OC)cnc2s1 -11.5%
COc1cccc(NC(=O)CSc2cc(C)[nH]c(=O)n2)c1 -13.5%
COc1ccc(CNC(=O)c2cnn(-c3ccc(OC)cc3)c2C2CCN(C(=O)OC(C)(C)C)CC2)cc1 -21.2%
Cc1c2cnn(-c3ccccc3)c(=O)c2c(C)n1CC(=O)N1CCN(c2cccc(Cl)c2)CC1 -17.4%
Cc1nc(SCC(=O)Nc2ccccc2Cl)cc(-c2ccccc2)n1 -12.2%
COc1cccc(-c2n[nH]c3c2C(c2cccc(O)c2)N(C)C3=O)c1 (stereo not drawn) -2.43%
CCS(=O)(=O)N1CC(=O)N(c2cccc(C)c2C)C(C)(C(=O)NC2CCCCCC2)C1 (stereo not drawn) 7.01%
Cc1c(C(=O)N(C)c2ccccc2)sc2nc(-c3ccc(F)cc3)cn12 -9.3%
O=C(Nc1cccc2cccnc12)c1cccc2c(Br)cccc12 -19.2%
O=C1c2oc3ccccc3c(=O)c2C(c2ccccc2F)N1Cc1ccc2c(c1)OCO2 (stereo not drawn) -21%
CCc1cc2c(cc3c(=O)n(CC(=O)NC4CCC(C)CC4)nc(CC)n32)s1 (stereo not drawn) -3.88%
Cc1cccc2c1-c1sc(C(=O)Nc3ccccc3C(N)=O)cc1CO2 -8.43%

Reference: PubChem BioAssay AID1159614 (National Center for Advancing Translational Sciences (NCATS), 2016)
